Measured values from the supplement of paper PMC10369915.
Some of the results follow. No stated cut-off is given here; in the data, active = 3.2 or more and inactive = the rest. Only a few entries rise above the background.

The binders below were run against SHP2 C-SH2 domain E139D (assay: enrichment score (SH2-bound / input frequency) (ratio); bacterial display of known human phosphotyrosine sites (pTyr-Var adds point mutants) read by sequencing; higher = stronger binding; tyrosines were phosphorylated by kinases first). Conditions: peptide library: pTyr-Var.
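Further: displayed peptides selected on beads carrying the immobilized SH2 domain, with library peptides lacking any tyrosine serving as negative controls.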

| Binder | enrichment score |
| --- | --- |
| SIKDKYVTAVY [KCNH2_Y611_L615V] | inactive: 0.708 |
| VSNFNYFYHRE [KCNA1_Y413] | inactive: 1.33 |
| WAFNLYDINKD [KCNIP3_Y174] | inactive: 1.18 |
| SRGHQYQELPR [KCNH2_Y1009_R1007H] | inactive: 0.973 |
| SIKDKHVTALY [KCNH2_Y611_Y611H] | inactive: 0.644 |
| EHTILYSNNST [KANSL1_Y223_T221I] | inactive: 1.02 |
| DPYHVYIKNRV [KCNE3_Y95] | inactive: 0.923 |
| GGEEFYVHFVG [KAT8_Y90_R86G_YF] | inactive: 1.1 |
| LEQRPYRRGSE [KCNJ12_Y427_E430G] | inactive: 0.281 |
| VSNFNYFFHRE [KCNA1_Y413_YF] | inactive: 1.92 |
| VGSIEYLKREW [KCNMA1_Y885] | inactive: 0.797 |
| RGDTVYTVNCM [KBTBD13_Y404_R408C] | inactive: 0.978 |
| RGDTVYTVNRM [KBTBD13_Y404] | inactive: 0.55 |
| NFRTTYINANE [KCNH2_Y475_V476I] | inactive: 0.962 |
| VWALTYCDLHK [KCNH2_Y827_R823W] | inactive: 1.58 |
| DPFHVYIKNRV [KCNE3_Y95_YF] | inactive: 1.06 |
| SIKDKYVTVLF [KCNH2_Y611_A614V_YF] | inactive: 1.53 |
| GREEFYVHYVG [KAT8_Y90] | inactive: 0.901 |

Each binder was assayed against SHP2 C-SH2 domain wild-type in the same assay as above. Conditions: peptide library: pTyr-Var.

| Binder | enrichment score |
| --- | --- |
| SIKDKYVTAVY [KCNH2_Y611_L615V] | inactive: 0.712 |
| VSNFNYFYHRE [KCNA1_Y413] | inactive: 1.55 |
| WAFNLYDINKD [KCNIP3_Y174] | inactive: 1.15 |
| SRGHQYQELPR [KCNH2_Y1009_R1007H] | inactive: 0.679 |
| SIKDKHVTALY [KCNH2_Y611_Y611H] | inactive: 0.777 |
| EHTILYSNNST [KANSL1_Y223_T221I] | inactive: 0.927 |
| DPYHVYIKNRV [KCNE3_Y95] | inactive: 0.825 |
| GGEEFYVHFVG [KAT8_Y90_R86G_YF] | inactive: 1.2 |
| LEQRPYRRGSE [KCNJ12_Y427_E430G] | inactive: 0.26 |
| VSNFNYFFHRE [KCNA1_Y413_YF] | inactive: 1.56 |
| VGSIEYLKREW [KCNMA1_Y885] | inactive: 0.928 |
| RGDTVYTVNCM [KBTBD13_Y404_R408C] | inactive: 1.28 |
| RGDTVYTVNRM [KBTBD13_Y404] | inactive: 0.575 |
| NFRTTYINANE [KCNH2_Y475_V476I] | inactive: 0.996 |
| VWALTYCDLHK [KCNH2_Y827_R823W] | inactive: 1.51 |
| DPFHVYIKNRV [KCNE3_Y95_YF] | inactive: 0.709 |
| SIKDKYVTVLF [KCNH2_Y611_A614V_YF] | inactive: 3.18 |
| GREEFYVHYVG [KAT8_Y90] | inactive: 1.26 |

What follows are binders tested against SHP2 N-SH2 domain L43F in the same assay as above. Conditions: peptide library: pTyr-Var.

| Binder | enrichment score |
| --- | --- |
| SIKDKYVTAVY [KCNH2_Y611_L615V] | inactive: 0.873 |
| VSNFNYFYHRE [KCNA1_Y413] | inactive: 1.12 |
| WAFNLYDINKD [KCNIP3_Y174] | inactive: 1.12 |
| SRGHQYQELPR [KCNH2_Y1009_R1007H] | inactive: 0.722 |
| SIKDKHVTALY [KCNH2_Y611_Y611H] | inactive: 0.65 |
| EHTILYSNNST [KANSL1_Y223_T221I] | inactive: 0.735 |
| DPYHVYIKNRV [KCNE3_Y95] | inactive: 0.684 |
| GGEEFYVHFVG [KAT8_Y90_R86G_YF] | inactive: 0.968 |
| LEQRPYRRGSE [KCNJ12_Y427_E430G] | inactive: 0.382 |
| VSNFNYFFHRE [KCNA1_Y413_YF] | inactive: 1.51 |
| VGSIEYLKREW [KCNMA1_Y885] | inactive: 0.72 |
| RGDTVYTVNCM [KBTBD13_Y404_R408C] | inactive: 1.05 |
| RGDTVYTVNRM [KBTBD13_Y404] | inactive: 0.588 |
| NFRTTYINANE [KCNH2_Y475_V476I] | inactive: 1.1 |
| VWALTYCDLHK [KCNH2_Y827_R823W] | inactive: 1.1 |
| DPFHVYIKNRV [KCNE3_Y95_YF] | inactive: 0.813 |
| SIKDKYVTVLF [KCNH2_Y611_A614V_YF] | active: 4.72 |
| GREEFYVHYVG [KAT8_Y90] | inactive: 0.773 |

The binders below were run against SHP2 N-SH2 domain T42A in the same assay as above. Conditions: peptide library: pTyr-Var.

| Binder | enrichment score |
| --- | --- |
| SIKDKYVTAVY [KCNH2_Y611_L615V] | inactive: 0.598 |
| VSNFNYFYHRE [KCNA1_Y413] | inactive: 1.23 |
| WAFNLYDINKD [KCNIP3_Y174] | inactive: 1.5 |
| SRGHQYQELPR [KCNH2_Y1009_R1007H] | inactive: 0.527 |
| SIKDKHVTALY [KCNH2_Y611_Y611H] | inactive: 0.494 |
| EHTILYSNNST [KANSL1_Y223_T221I] | inactive: 1.97 |
| DPYHVYIKNRV [KCNE3_Y95] | inactive: 0.752 |
| GGEEFYVHFVG [KAT8_Y90_R86G_YF] | inactive: 1.01 |
| LEQRPYRRGSE [KCNJ12_Y427_E430G] | inactive: 0.25 |
| VSNFNYFFHRE [KCNA1_Y413_YF] | inactive: 1.58 |
| VGSIEYLKREW [KCNMA1_Y885] | inactive: 0.927 |
| RGDTVYTVNCM [KBTBD13_Y404_R408C] | inactive: 0.945 |
| RGDTVYTVNRM [KBTBD13_Y404] | inactive: 0.645 |
| NFRTTYINANE [KCNH2_Y475_V476I] | inactive: 2.39 |
| VWALTYCDLHK [KCNH2_Y827_R823W] | inactive: 1.16 |
| DPFHVYIKNRV [KCNE3_Y95_YF] | inactive: 0.909 |
| SIKDKYVTVLF [KCNH2_Y611_A614V_YF] | active: 6.28 |
| GREEFYVHYVG [KAT8_Y90] | inactive: 0.735 |

Each binder was assayed against SHP2 N-SH2 domain T52S in the same assay as above. Conditions: peptide library: pTyr-Var.

| Binder | enrichment score |
| --- | --- |
| SIKDKYVTAVY [KCNH2_Y611_L615V] | inactive: 0.733 |
| VSNFNYFYHRE [KCNA1_Y413] | inactive: 1.21 |
| WAFNLYDINKD [KCNIP3_Y174] | inactive: 1 |
| SRGHQYQELPR [KCNH2_Y1009_R1007H] | inactive: 0.593 |
| SIKDKHVTALY [KCNH2_Y611_Y611H] | inactive: 0.642 |
| EHTILYSNNST [KANSL1_Y223_T221I] | inactive: 0.636 |
| DPYHVYIKNRV [KCNE3_Y95] | inactive: 0.832 |
| GGEEFYVHFVG [KAT8_Y90_R86G_YF] | inactive: 0.925 |
| LEQRPYRRGSE [KCNJ12_Y427_E430G] | inactive: 0.298 |
| VSNFNYFFHRE [KCNA1_Y413_YF] | inactive: 1.71 |
| VGSIEYLKREW [KCNMA1_Y885] | inactive: 0.896 |
| RGDTVYTVNCM [KBTBD13_Y404_R408C] | inactive: 1.08 |
| RGDTVYTVNRM [KBTBD13_Y404] | inactive: 0.601 |
| NFRTTYINANE [KCNH2_Y475_V476I] | inactive: 0.826 |
| VWALTYCDLHK [KCNH2_Y827_R823W] | inactive: 1.02 |
| DPFHVYIKNRV [KCNE3_Y95_YF] | inactive: 1.07 |
| SIKDKYVTVLF [KCNH2_Y611_A614V_YF] | active: 6.34 |
| GREEFYVHYVG [KAT8_Y90] | inactive: 0.707 |

What follows are binders tested against SHP2 N-SH2 domain wild-type in the same assay as above. Conditions: peptide library: pTyr-Var.

| Binder | enrichment score |
| --- | --- |
| SIKDKYVTAVY [KCNH2_Y611_L615V] | inactive: 0.758 |
| VSNFNYFYHRE [KCNA1_Y413] | inactive: 1.19 |
| WAFNLYDINKD [KCNIP3_Y174] | inactive: 1.06 |
| SRGHQYQELPR [KCNH2_Y1009_R1007H] | inactive: 0.881 |
| SIKDKHVTALY [KCNH2_Y611_Y611H] | inactive: 0.692 |
| EHTILYSNNST [KANSL1_Y223_T221I] | inactive: 1.13 |
| DPYHVYIKNRV [KCNE3_Y95] | inactive: 0.76 |
| GGEEFYVHFVG [KAT8_Y90_R86G_YF] | inactive: 1.32 |
| LEQRPYRRGSE [KCNJ12_Y427_E430G] | inactive: 0.292 |
| VSNFNYFFHRE [KCNA1_Y413_YF] | inactive: 1.46 |
| VGSIEYLKREW [KCNMA1_Y885] | inactive: 0.767 |
| RGDTVYTVNCM [KBTBD13_Y404_R408C] | inactive: 1.35 |
| RGDTVYTVNRM [KBTBD13_Y404] | inactive: 0.698 |
| NFRTTYINANE [KCNH2_Y475_V476I] | inactive: 0.877 |
| VWALTYCDLHK [KCNH2_Y827_R823W] | inactive: 1.31 |
| DPFHVYIKNRV [KCNE3_Y95_YF] | inactive: 0.827 |
| SIKDKYVTVLF [KCNH2_Y611_A614V_YF] | inactive: 2.29 |
| GREEFYVHYVG [KAT8_Y90] | inactive: 0.874 |
